Molecules are shown by their SMILES. Among all 50,000 compounds or so, about 800 (1.6%) showed an effect of 50% or more. This is one part of the list.

The target of the test is Bcl-2-like protein 10 (Homo sapiens) (UniProt Q9HD36). Kind of test: TR3 peptide-Bcl-B binding displacers, biochemical primary FP assay, phenotype converters (AID 1240).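 Further: 0% = Bcl-B with tracer peptide and DMSO and 100% = tracer peptide lacking Bcl-B.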 As to conditions: GST-Bcl-B / FITC-TR3 peptide fluorescence polarization; stronger effect = higher value; compound at 3.75 mg/L.
UniProt Q9HD36, sequence (Q9HD36 whole entry, looked up): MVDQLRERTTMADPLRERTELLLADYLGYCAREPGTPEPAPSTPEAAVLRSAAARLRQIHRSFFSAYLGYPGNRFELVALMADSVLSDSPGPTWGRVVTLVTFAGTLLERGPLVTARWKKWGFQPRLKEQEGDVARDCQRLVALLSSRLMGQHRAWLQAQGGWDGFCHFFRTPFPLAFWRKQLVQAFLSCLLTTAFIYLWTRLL
Take `Cc1cc(C)c(NC(=S)NC(=O)c2ccccc2C)c(C)c1`: the displacement is 0.8%.

Take `NC1=NC(=O)C(Cc2ccccc2)S1` (stereo unspecified): the displacement was -9.7%.

In the case of `COc1ccc(C(=O)N2CCN(Cc3ccc(OC)c(OC)c3OC)CC2)cc1OC`, the displacement was -1.3%. In the case of `CCOc1cc(C(=O)Nc2cccc(NC(C)=O)c2)cc(OCC)c1OCC`, the displacement worked out at 13.2%.

For the molecule `O=C(CSc1ccccc1C(=O)O)c1ccc(-c2ccccc2)cc1`, the displacement was -9.3%. With `O=C(Cc1ccccc1)Nc1ccc2nn(-c3ccc(Cl)cc3)nc2c1`, the displacement is 10.1%.

In the case of `CC(=O)NC1=NN(C(C)=O)C(c2ccc(Cl)cc2Cl)S1` (stereo unspecified), the displacement amounted to 3%. The result for `O=C(CCC1CCCC1)Nc1cccc(Cl)c1` reads -0.1%; that for `Cc1cccc(NC(=O)c2ccc(Br)o2)n1`, -4.2%. Then `CCc1cccc(CC)c1NC(=O)c1cccc(OC)c1`, with -10.9%; and `Cc1cccc(N2CCN(C(=O)C3C4CCC(O4)C3C(=O)O)CC2)c1C` (stereo unspecified), with 0.3%; and `COc1ccc(C2/C(=C(\O)c3ccc([N+](=O)[O-])cc3)C(=O)C(=O)N2CCCCCC(=O)O)cc1` (stereo unspecified), with -2%.

On to `CC(=O)Nc1ccccc1NC(=O)c1ccc(Br)cc1`, for which the displacement came to 8.2%. For the molecule `CCc1ccc(S(=O)(=O)Nc2ccc(OC(=O)c3ccc(C)cc3)cc2)cc1`, the displacement is 14.6%. For the molecule `Cc1nonc1N=Cc1ccccc1O`, the displacement was determined as 10.3%. Turning to `CC1=C(C(=O)OCCc2ccccc2)C(c2ccc3c(c2)OCO3)C2=C(CC(C)(C)CC2=O)N1` (stereo unspecified), the displacement is -3.8%.

`COc1ccccc1P(=O)(c1ccccc1)c1ccccc1`: the displacement came to 3.8%. In the case of `CCOC(=O)/C=C/C(=O)Nc1nc(-c2ccc(C)cc2)cs1`, the displacement was -3.9%. Take `CCOC(=O)/C(C#N)=C\c1cc(OC)c(OC)cc1[N+](=O)[O-]`: the displacement turned out to be 5.7%. Then `Cc1ccc(/C=N/NC(=O)C2=NNC(=O)C2C)o1` (stereo unspecified), with -17%; and `CC(C)OC(=O)c1c(NC(=O)c2ccc(Br)o2)sc2c1CCCCC2`, with -8.9%; and `Cc1ccc(-c2csc(N)c2C(=O)OC(C)C)cc1`, with -1.9%. `CCc1nc(-c2ccccc2)nc(C)c1C`: the displacement is 16.1%.

With `COc1ccc(NC(=S)NC(NC(=O)c2cccc([N+](=O)[O-])c2)C(Cl)(Cl)Cl)cc1` (stereo unspecified), the displacement was determined as 11.9%. Consider `O=C(CSc1nc2ccccc2s1)NNC(=S)Nc1ccc(Cl)cc1`, for which the displacement was -8.2%. For the molecule `CCOC(=O)C1=C(C)N=c2s/c(=C\c3ccc(C)cc3)c(=O)n2C1c1ccc(OC)cc1` (stereo unspecified), the displacement was -6.4%. On to `O=C(Nc1ccc(Br)cn1)c1cc2n(n1)C(C(F)(F)F)CC(c1ccccc1)N2` (stereo unspecified), for which the displacement amounted to 5.3%. For the molecule `CN(C)CCNC(=O)COc1cccc2ccccc12`, the displacement was -5.3%.

Consider `O=S(=O)(Nc1cccc(I)c1)c1ccc2ccccc2c1`, for which the displacement was -0.6%.

As for `COc1ccc(N(CC(=O)NCc2ccco2)S(=O)(=O)c2ccccc2)cc1`, the displacement was -4.5%. The result for `COc1ccc(OC)c(/C=N\N2CCN(c3ccccc3OC)CC2)c1` reads 4%.

Values taken from PubChem BioAssay AID1240 (Sanford-Burnham Center for Chemical Genomics, 2008).
